# The other results are listed elsewhere or left out.
# How the values were obtained:
# Assay in all cases: glycan array binding signal (z-score within array); higher = stronger binding
# Settings in all cases: glycan notation: IUPAC condensed, linker removed
# [1] = biological target: Fuc(a1-3)[Gal(b1-4)]GlcNAc(b1-2)Man(a1-6)[Gal(b1-4)GlcNAc(b1-2)Man(a1-3)]Man(b1-4)GlcNAc(b1-4)GlcNAc
# Summary of the method: (§1)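 Columns mapping to the same glycan were averaged after glycan names were converted to IUPAC-condensed notation. The data come from 3228 arrays in the Consortium for Functional Glycomics database, limited to those with an available protein sequence. Binding is reported as a within-array Z-score averaged across arrays of one protein sequence and across linkers.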
# [2] = biological target: Fuc(a1-3)[Gal(b1-4)]GlcNAc(b1-3)Gal(b1-3)[Fuc(a1-4)]GlcNAc
# Summary of the method: as §1
# [3] = biological target: Fuc(a1-3)[Gal(b1-4)]GlcNAc(b1-4)Gal(b1-4)[Fuc(a1-3)]GlcNAc
# Summary of the method: as §1
# [4] = biological target: Fuc(a1-3)[Gal(b1-4)]GlcNAc(b1-4)Gal(b1-4)[Fuc(a1-3)]GlcNAc(b1-4)Gal(b1-4)[Fuc(a1-3)]GlcNAc
# Summary of the method: as §1
# [5] = biological target: Fuc(a1-3)[Gal(b1-4)]GlcNAc6S
# Summary of the method: as §1
# [6] = biological target: Fuc(a1-3)[Gal3S(b1-4)]Glc6S
# Summary of the method: as §1
# [7] = biological target: Fuc(a1-3)[Gal3S(b1-4)]GlcNAc
# Summary of the method: as §1
# [8] = biological target: Fuc(a1-3)[Gal3S(b1-4)]GlcNAc6S
# Summary of the method: as §1
# [9] = biological target: Fuc(a1-3)[GalNAc(b1-4)]GlcNAc
# Summary of the method: as §1
# Fuc(a1-4)GlcNAc = biological target: Fuc(a1-4)GlcNAc
# Summary of the method: as §1
# Fuc(b1-3)GlcNAc = biological target: Fuc(b1-3)GlcNAc
# Summary of the method: as §1
# Gal(a1-2)Gal = biological target: Gal(a1-2)Gal
# Summary of the method: as §1
# Gal(a1-3)Gal = biological target: Gal(a1-3)Gal
# Summary of the method: as §1
# Gal(a1-3)Gal(b1-3)GlcNAc = biological target: Gal(a1-3)Gal(b1-3)GlcNAc
# Summary of the method: as §1
# Gal(a1-3)Gal(b1-4)Glc = biological target: Gal(a1-3)Gal(b1-4)Glc
# Summary of the method: as §1
# Gal(a1-3)Gal(b1-4)GlcNAc = biological target: Gal(a1-3)Gal(b1-4)GlcNAc
# Summary of the method: as §1
# [10] = biological target: Gal(a1-3)Gal(b1-4)[Fuc(a1-3)]GlcNAc
# Summary of the method: as §1
# Gal(a1-3)GalNAc = biological target: Gal(a1-3)GalNAc
# Summary of the method: as §1
# [11] = biological target: Gal(a1-3)[Gal(a1-4)]Gal(b1-4)GlcNAc
# Summary of the method: as §1
# Gal(a1-4)Gal(b1-4)Glc = biological target: Gal(a1-4)Gal(b1-4)Glc
# Summary of the method: as §1
# Gal(a1-4)Gal(b1-4)GlcNAc = biological target: Gal(a1-4)Gal(b1-4)GlcNAc
# Summary of the method: as §1
# Gal(a1-4)GlcNAc = biological target: Gal(a1-4)GlcNAc
# Summary of the method: as §1
# Gal(a1-6)Glc = biological target: Gal(a1-6)Glc
# Summary of the method: as §1
# Gal(b1-2)Gal = biological target: Gal(b1-2)Gal
# Summary of the method: as §1
# Gal(b1-3)Gal = biological target: Gal(b1-3)Gal
# Summary of the method: as §1
# Gal(b1-3)Gal(b1-4)GlcNAc = biological target: Gal(b1-3)Gal(b1-4)GlcNAc
# Summary of the method: as §1
# Gal(b1-3)GalNAc = biological target: Gal(b1-3)GalNAc
# Summary of the method: as §1
# [12] = biological target: Gal(b1-3)GalNAc(b1-3)Gal(a1-4)Gal(b1-4)Glc
# Summary of the method: as §1
# [13] = biological target: Gal(b1-3)GalNAc(b1-4)Gal(b1-4)Glc
# Summary of the method: as §1
# [14] = biological target: Gal(b1-3)GalNAc(b1-4)[Neu5Ac(a2-3)]Gal(b1-4)Glc
# Summary of the method: as §1
# Gal(b1-3)GlcNAc = biological target: Gal(b1-3)GlcNAc
# Summary of the method: as §1
# [15] = biological target: Gal(b1-3)GlcNAc(b1-2)Man(a1-3)[Gal(b1-3)GlcNAc(b1-2)Man(a1-6)]Man(b1-4)GlcNAc(b1-4)GlcNAc
# Summary of the method: as §1
# [16] = biological target: Gal(b1-3)GlcNAc(b1-3)Gal(b1-3)GlcNAc
# Summary of the method: as §1
# [17] = biological target: Gal(b1-3)GlcNAc(b1-3)Gal(b1-4)Glc
# Summary of the method: as §1
# [18] = biological target: Gal(b1-3)GlcNAc(b1-3)Gal(b1-4)GlcNAc
# Summary of the method: as §1
# [19] = biological target: Gal(b1-3)[Fuc(a1-4)]GlcNAc
# Summary of the method: as §1
# [20] = biological target: Gal(b1-3)[Fuc(a1-4)]GlcNAc(b1-3)Gal(b1-3)[Fuc(a1-4)]GlcNAc
# Summary of the method: as §1
# [21] = biological target: Gal(b1-3)[Fuc(a1-4)]GlcNAc(b1-3)Gal(b1-4)GlcNAc
# Summary of the method: as §1
binder,measurement,setting,value
"R410P1E11 (Tachypleus tridentatus), TAL2_TACTR (protein) MEKGTPPTHDSDNWMGRAKEIGNGGWDQFQFLFFDPNGYLYAVSNDKLYKASPPQSDTDNWIARATEIGSGGWSGFKFLFFHPNGYLYAVRGQRFYKALPPVSNQD",glycan array binding signal (z-score),[1],-0.563
same,glycan array binding signal (z-score),[2],-0.255
same,glycan array binding signal (z-score),[3],-0.276
same,glycan array binding signal (z-score),[4],-0.724
same,glycan array binding signal (z-score),[5],-0.234
same,glycan array binding signal (z-score),[6],-0.22
same,glycan array binding signal (z-score),[7],-0.106
same,glycan array binding signal (z-score),[8],-0.25
same,glycan array binding signal (z-score),[9],1.75
same,glycan array binding signal (z-score),Fuc(a1-4)GlcNAc,-0.369
same,glycan array binding signal (z-score),Fuc(b1-3)GlcNAc,0.095
same,glycan array binding signal (z-score),Gal(a1-2)Gal,-0.326
same,glycan array binding signal (z-score),Gal(a1-3)Gal,-0.448
same,glycan array binding signal (z-score),Gal(a1-3)Gal(b1-3)GlcNAc,-0.507
same,glycan array binding signal (z-score),Gal(a1-3)Gal(b1-4)Glc,0.042
same,glycan array binding signal (z-score),Gal(a1-3)Gal(b1-4)GlcNAc,-0.112
same,glycan array binding signal (z-score),[10],2.34
same,glycan array binding signal (z-score),Gal(a1-3)GalNAc,0.051
same,glycan array binding signal (z-score),[11],-0.23
same,glycan array binding signal (z-score),Gal(a1-4)Gal(b1-4)Glc,-0.323
same,glycan array binding signal (z-score),Gal(a1-4)Gal(b1-4)GlcNAc,0.059
same,glycan array binding signal (z-score),Gal(a1-4)GlcNAc,-0.199
same,glycan array binding signal (z-score),Gal(a1-6)Glc,0.129
same,glycan array binding signal (z-score),Gal(b1-2)Gal,-0.309
same,glycan array binding signal (z-score),Gal(b1-3)Gal,-0.213
same,glycan array binding signal (z-score),Gal(b1-3)Gal(b1-4)GlcNAc,-0.622
same,glycan array binding signal (z-score),Gal(b1-3)GalNAc,-0.233
same,glycan array binding signal (z-score),[12],1.09
same,glycan array binding signal (z-score),[13],-0.247
same,glycan array binding signal (z-score),[14],-0.397
same,glycan array binding signal (z-score),Gal(b1-3)GlcNAc,-0.392
same,glycan array binding signal (z-score),[15],-0.301
same,glycan array binding signal (z-score),[16],-0.154
same,glycan array binding signal (z-score),[17],-0.25
same,glycan array binding signal (z-score),[18],-0.214
same,glycan array binding signal (z-score),[19],-0.104
same,glycan array binding signal (z-score),[20],-0.298
same,glycan array binding signal (z-score),[21],-0.52

# — the supplement of paper PMC8728848
